The record followed here is patent US11123329B1, “Use of angiotensin II type 2 receptor agonist” (Vicore Pharma AB, priority 2020, dated 2021).

The test system of the assay is E-cadherin expression. Nature of the assay: BioMAP fibrosis panel, human small airway epithelial cell plus lung fibroblast (SAEMyoF) assay, ELISA-based biomarker detection. To be noted: 10 μM of C21. As to the method: The effect of C21 on E-cadherin expression was studied using the human disease model BioMAP® platform (fibrosis panel) with ELISA-based protein biomarker detection in a human small airway epithelial cell plus lung fibroblast (SAEMyoF) assay (a service provided by Eurofins DiscoverX Corporation, Fremont, Calif., USA).
The relative expression level of E-cadherin (expressed as Log ratio C21/Vehicle control) was −0.0476 with 10 μM of C21.
(In general: ELISA stands for enzyme-linked immunosorbent assay.)

Consider `CCCCOC(=O)NS(=O)(=O)c1sc(CC(C)C)cc1-c1ccc(Cn2ccnc2)cc1` [Compound C21, N-butyloxycarbonyl-3-(4-imidazol-1-ylmethylphenyl)-5-isobutylthiophene-2-sulfonamide], for which the “relative expression level of E-cadherin (expressed as Log ratio C21/Vehicle control)” value is listed as −0.0476.
